Experimental data as given in PubChem BioAssay AID1671194 (National Center for Advancing Translational Sciences (NCATS), 2021).
Out of some 140,000 compounds screened, about 240 (0.17%) were called active. The shares of active, inactive and inconclusive entries below differ from those in the screen. The call rests on the fitted dose curve; in most records, active means well fitted inhibition curve with a large enough effect; inconclusive means small, poorly fitted or top-dose-only effect; inactive means no such curve, though single readings can be large or run the other way. Where the call is inconclusive, the potency comes from a doubtful curve fit.

Assay: Primary qHTS assay for inhibitors of alpha-synuclein gene (SNCA) expression; further: nearly all actives have a fitted effect of over 45% in size;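 on activity change, negative = inhibition: plate controls were DMSO cells for no effect and cell-free wells for full effect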
Conditions: HEK-293 SNCA-luciferase knock-in, luminescence, 24 h; activity change, negative = inhibition: at 57.2 µM (top of the series) unless noted
Potency means the concentration at half of the fitted maximal effect; tags describe the fitted curve by direction and shape.

Structure (SMILES)	Potency	activity change, negative = inhibition
O=C(C1CCN(S(=O)(=O)c2cccc3nonc23)CC1)N1CCN(c2ccccc2F)CC1	inconclusive: 6.31 µM [inhibitor, single point]	
CC(=O)Nc1ccc(S(=O)(=O)N[C@@H]2C=C[C@@H](c3c(C)nn(-c4ccc(C(C)(C)C)cc4)c3C)C2)cc1		inactive: 53%
O=C1N[C@@H](Cc2c[nH]c3ccccc23)C(=O)N2CCN(C(=O)c3cccnc3)C[C@@H]12	inconclusive: 10 µM [inhibitor, single point]	
Cc1ccc(C(c2ccccc2)c2c(C)[nH]c3ccccc23)s1 (stereo not drawn)	inconclusive: 22.4 µM [inhibitor, single point]	
Nc1nnc(SCC(=O)Nc2ccccc2)s1		inactive: 67.6%
CN(C)Cc1ccc(-c2cc3c(ccn3Cc3cccnc3)c(C3=CCOCC3)n2)cc1		inactive: -12.7% [at 87.6 µM]
Cc1cc(C)c(NC(=O)CN2C(=O)c3cccnc3Oc3ccc(C)cc32)c(C)c1	inconclusive: 7.08 µM [inhibitor, single point]	
CCN1CCN(C(=O)Cn2ncc3c4ccccc4n(Cc4ccccc4)c3c2=O)CC1	inconclusive: 7.08 µM [inhibitor, single point]	
CN(C)C(=O)N1Cc2ccccc2OC2(CCN(C(=O)c3ccnc(N)c3)CC2)C1		inactive: 6.99%
CCNC(=O)c1ccc(OC2CCN(C(=O)c3ccnn3C)C2)nc1 (stereo not drawn)		inactive: -6.92%
CC(C)NC(=O)NC[C@H]1Cn2c(-c3ccc4c(c3)OCO4)cnc2CO1	inconclusive: 22.4 µM [inhibitor, partial curve, poor fit]	
CCCCOc1ccc(-c2nc(C3CC(=O)N(c4ccc(F)cc4)C3)no2)cc1 (stereo not drawn)	inconclusive: 6.31 µM [inhibitor, partial curve]	
CC(C)(C)C(=O)N1CCCC1C(=O)N1CCC2(CC1)CC(=O)Nc1ccccc1O2 (stereo not drawn)	inconclusive: 39.8 µM [inhibitor, single point]	
Cc1cccc(NC(=O)Cn2c(-c3cnccn3)nc(C)c(CCO)c2=O)c1C	inconclusive: 7.08 µM [inhibitor, partial curve]	
CC1=C[C@@H](CC#N)[C@H](C(C)C)C[C@H]1CC(=O)NC1CC1		inactive: 11.1% [at 87.6 µM]
C=CCN(C)C(=O)[C@@H](C)C1CC[C@@]2(C)Cc3sc(-c4cccnc4)nc3[C@@H](C)[C@@H]2[C@H]1O (stereo partly drawn)	inconclusive: 56.2 µM [inhibitor, single point]	
CCOC(=O)c1cn(C2CN(S(=O)(=O)c3cccc(Cl)c3)C2)nn1	inconclusive: 1.12 µM [inhibitor, single point]	
O=C(NCc1ccccc1)c1cnc2n1CCN(Cc1ccc(F)cc1)CC2	inconclusive: 14.1 µM [inhibitor, partial curve, poor fit]	
COC(=O)c1ccc2c(c1)N(CC(=O)Nc1cccc(Cl)c1C)C(=O)c1ccccc1S2	inconclusive: 7.08 µM [inhibitor, single point]	
CCCN(C)C(=O)CCc1ccnc(N2CCOCC2)c1		inactive: -1.73%
CCCCN(C)CCCNC(=O)Cn1ncc2c3ccccc3n(Cc3ccccc3F)c2c1=O	inconclusive: 20 µM [inhibitor, partial curve, poor fit]	
COc1ccc(NC(=O)Cn2c(=O)oc3cc(S(=O)(=O)NCc4ccccc4)ccc32)c(OC)c1	inconclusive: 25.1 µM [inhibitor, single point]	

Structure (SMILES)	Potency	activity change, negative = inhibition
COc1ccc(Cl)cc1NC(=O)N(C)CC1CCOCC1	inconclusive: 28.2 µM [inhibitor, single point]	
O=C(CSC1=Nc2ccccc2C2=NC(Cc3ccccc3)C(=O)N12)Nc1ccccc1C(F)(F)F (stereo not drawn)	inconclusive: 12.6 µM [inhibitor, partial curve, poor fit]	
Cc1ccsc1C(=O)NCC1Cn2cccc2CN1C (stereo not drawn)		inactive: 39.9%
COc1cc(NC(=O)CC(c2ccc(C)cc2)N2Cc3ccccc3C2=O)cc(OC)c1 (stereo not drawn)	inconclusive: 6.31 µM [inhibitor, single point]	
COc1cc(C2CC(=O)c3c([nH]c(C(=O)OCC4CCCCC4)c3C)C2)cc(OC)c1OC (stereo not drawn)	inconclusive: 4.47 µM [inhibitor, partial curve, poor fit]	
CCc1ccc(CNC(=O)CN2CC3CC(C2)[C@H]2CCCC(=O)N2C3)cc1 (stereo partly drawn)		inactive: -16%
CC(C)Cc1nc2nccc(-c3ccc(F)cc3)n2n1		inactive: 0.343%
O=C(NCCc1ccccc1)c1cc2n(n1)CC(c1ccc(Cl)cc1)OC2 (stereo not drawn)		inactive: 3.22%
CN(C)c1cccc(-c2nccc3c(=O)cc(-c4cn[nH]c4)oc23)c1		inactive: -10.5% [at 87.6 µM]
O=C(NCCc1ccc(Cl)cc1)c1nc(-c2cccc(F)c2)c2cnccn12		inactive: -14.8%
COc1cc(-c2nc(-c3c(C)noc3C)cc3c2cc(C)n3CCN(C)C)ccn1		inactive: -0.264% [at 87.6 µM]
Cc1ccccc1NS(=O)(=O)c1ccc2[nH]cc(C(=O)NC(C)c3ccccc3)c(=O)c2c1 (stereo not drawn)	inconclusive: 22.4 µM [inhibitor, partial curve, poor fit]	
Cc1cc(Nc2ccccc2C)nc(-n2nc(C)cc2C)n1	inconclusive: 3.16 µM [inhibitor, partial curve, poor fit]	
CN(CC[C@H]1CN(C(=O)c2ccc(C(F)(F)F)cc2)CC[C@H]1CC(=O)O)c1ccccc1		inactive: 9.08%
Cc1ccsc1C(=O)N1CCC2(CC1)CC(N1CCOCC1)CCO2 (stereo not drawn)		inactive: -7.68%
CCCOc1ccc(CN(C(=O)c2cc(=O)c3ccc(C)cc3o2)C2CCS(=O)(=O)C2)cc1 (stereo not drawn)	inconclusive: 7.94 µM [inhibitor, single point]	
O=C([C@@H]1C[C@H](F)CN1C(=O)Nc1cc(F)cc(F)c1)N1CCCCC1	inconclusive: 1.78 µM [inhibitor, partial curve, poor fit]	
Cc1ccc(CN2CCCC3(COc4ccccc4C(=O)N3)C2)cc1 (stereo not drawn)		inactive: 2.38% [at 87.6 µM]
CCOc1ccccc1CN1CCc2nc(N3CCN(c4ccccc4F)CC3)ncc2C1	inconclusive: 39.8 µM [inhibitor, single point]	
COc1ccc(CN2C(=O)[C@@H]3C[C@@H](CN3C(C)C)Oc3ccccc32)cc1		inactive: 4.78% [at 87.6 µM]
Fc1ccccc1-c1cc2c(cn1)CN(Cc1cccnc1)CCN2	inconclusive: 31.6 µM [inhibitor, partial curve, poor fit]	
